Experimental data: article PMC9911399, “Two distinct binding modes provide the RNA-binding protein RbFox with extraordinary sequence specificity”
Substitutions are numbered along the chain they refer to; changes in the protein carry UniProt numbers. Some of the results follow.

T1: RBFOX1 RRM RbFoxmut (Fox-RRM*) (Homo sapiens, UniProt Q9NWB1 109-208, R118D;E147R;N151S;E152T)
T1 sequence: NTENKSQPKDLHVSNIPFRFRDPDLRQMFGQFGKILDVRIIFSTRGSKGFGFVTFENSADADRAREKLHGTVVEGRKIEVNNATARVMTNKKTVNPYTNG

B1: AAUCGAA (DNA:RNA)
RNA: GGGAGACCGGAAUUCAGAUUGUCCAAUCGAAUUAAAUCCCGUCGUAGCCACCA
DNA 1: CAATCTGAATTCCGGTCTCCC
DNA 2: TGGTGGCTACGACGGGATT
B2: AUGGACC (DNA:RNA)
RNA: B1 RNA with A26U, U27G, C28G, G29A, A30C, A31C
DNA 1: CAATCTGAATTCCGGTCTCCC
DNA 2: TGGTGGCTACGACGGGATT
B3: GAAACGC (DNA:RNA)
RNA: B1 RNA with A25G, U27A, C28A, G29C, A30G, A31C
DNA 1: CAATCTGAATTCCGGTCTCCC
DNA 2: TGGTGGCTACGACGGGATT
B4: AUUAAGU (DNA:RNA)
RNA: B1 RNA with A26U, C28A, G29A, A30G, A31U
DNA 1: CAATCTGAATTCCGGTCTCCC
DNA 2: TGGTGGCTACGACGGGATT
B5: UCCAGGA (DNA:RNA)
RNA: B1 RNA with A25U, A26C, U27C, C28A, A30G
DNA 1: CAATCTGAATTCCGGTCTCCC
DNA 2: TGGTGGCTACGACGGGATT
B6: CAGGGGC (DNA:RNA)
RNA: B1 RNA with A25C, U27G, C28G, A30G, A31C
DNA 1: CAATCTGAATTCCGGTCTCCC
DNA 2: TGGTGGCTACGACGGGATT
B7: UUCGUCU (DNA:RNA)
RNA: GGGAGACCGGAAUUCAGAUUGUCCUUCGUCUUUAAAUCCCGUCGUAGCCACCA
DNA 1: CAATCTGAATTCCGGTCTCCC
DNA 2: TGGTGGCTACGACGGGATT
B8: GCCACAC (DNA:RNA)
RNA: B1 RNA with A25G, A26C, U27C, C28A, G29C, A31C
DNA 1: CAATCTGAATTCCGGTCTCCC
DNA 2: TGGTGGCTACGACGGGATT
B9: CAUCGAU (DNA:RNA)
RNA: B1 RNA with A25C, A31U
DNA 1: CAATCTGAATTCCGGTCTCCC
DNA 2: TGGTGGCTACGACGGGATT

target: T1, RBFOX1 RRM RbFoxmut (Fox-RRM*); assay: EMSA; HiTS-Eq, 1 nM pool, 10 min; buffer printed only for the single-RNA assays: 10 mM Tris pH 7.5, 150 mM NaCl, 3.4 mM EDTA, 0.001% NP-40, 30 C; conditions: tags: His6 N-terminal (pET28a); label: 5' 32P
Procedure, shortened: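 A pool of RNA with 7 randomized nucleotides, 5′-radiolabelled and with DNA-annealed flanks, was equilibrated at 1 nM for 10 min in 50 µL with purified RbFox RRM, wild type or mutant, across increasing protein concentrations. Free RNA was separated by 8% native PAGE, excised, reverse-transcribed, barcoded by PCR and sequenced. Relative association constants were obtained from read-count changes of each RNA species versus the control reaction and normalised to the cognate motif.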

Point of comparison: B2, binding signal 0.0807 KA relative to UGCAUGU. Against it:
- B1 — higher, 0.081 KA relative to UGCAUGU
- B3 — lower, 0.0694 KA relative to UGCAUGU
- B4 — higher, 0.152 KA relative to UGCAUGU
- B5 — higher, 0.0868 KA relative to UGCAUGU
- B6 — higher, 0.0943 KA relative to UGCAUGU
- B7 — lower, 0.0697 KA relative to UGCAUGU
- B8 — lower, 0.0681 KA relative to UGCAUGU
- B9 — higher, 0.0857 KA relative to UGCAUGU
